According to the supplement of paper PMC4967469:

How the values were obtained:
Test in all cases: Viability of human cancer cell lines after 72 h of drug (GDSC screen)
[1] = compound: Cc1ccc2nc(NCCN)c3ncc(C)n3c2c1 [BMS-345541]; conditions: top dose 16 µM
Protocol: (§1)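 Human cancer cell lines in 384-well plates, medium with 10% serum, drug for 72 h over a 256-fold dose range (nine 2-fold or five 4-fold steps up to the top dose). Adherent lines were fixed and stained with the nucleic acid dye Syto60, suspension lines read with resazurin; signal relative to control wells, capped at 0 and 100%. One two-parameter sigmoid per drug and line, fitted in a mixed model over all curves with the slope shared within a line.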

[2] = compound: COc1cc(C(=O)NC2CCN(C)CC2)ccc1Nc1ncc2c(n1)N(C1CCCC1)C(C)CC(=O)N2C [NPK76-II-72-1]; conditions: top dose 10.24 µM; top dose inferred
Protocol: as §1

[3] = compound: O=C(O)c1ccc(-c2c[nH]c3ncc(-c4ccccc4)cc23)cc1C1CCCC1 [GSK-650394]; conditions: top dose 16 µM; top dose inferred
Protocol: as §1

[4] = compound: C=C(c1ccc(C(=O)O)cc1)c1cc2c(cc1C)C(C)(C)CCC2(C)C [Bexarotene]; conditions: top dose 8 µM
Protocol: as §1

[5] = compound: NC(=O)Nc1cc(-c2cccc(F)c2)sc1C(=O)N[C@H]1CCCNC1 [AZD7762]; conditions: top dose 2 µM
Protocol: as §1

[6] = compound: COc1cc([C@@H]2c3cc4c(cc3[C@@H](O[C@@H]3O[C@@H]5CO[C@@H](C)O[C@H]5[C@H](O)[C@H]3O)[C@H]3COC(=O)[C@H]23)OCO4)cc(OC)c1O [Etoposide]; conditions: top dose 16 µM
Protocol: as §1

[7] = compound: COc1ccc(C(=O)CC2(O)C(=O)Nc3c(Cl)ccc(Cl)c32)cc1 [YK 4-279]; conditions: top dose 10 µM
Protocol: as §1

[8] = compound: Oc1nc(-c2ccc(C(F)(F)F)cc2)nc2c1CSCC2 [XAV 939]; conditions: top dose 5 µM; top dose inferred
Protocol: as §1

Row | Cell Line | AUC [1] | IC50 [1] [µM] | AUC [2] | IC50 [2] [µM] | AUC [3] | IC50 [3] [µM] | AUC [4] | IC50 [4] [µM] | AUC [5] | IC50 [5] [µM] | AUC [6] | IC50 [6] [µM] | AUC [7] | IC50 [7] [µM] | AUC [8] | IC50 [8] [µM]
1 | EW-3 (Ewing sarcoma, adherent) | 0.893 | > 16 | 0.778 | 4.75 | 0.967 | > 16 | 0.97 | > 8 | 0.847 | 1.8 | 0.818 | 10.7 | 0.726 | 3.03 | 0.976 | > 5
2 | EW-7 (Ewing sarcoma, semi-adherent) | 0.788 | 6.09 | 0.564 | 0.938 | 0.98 | > 16 | 0.984 | > 8 | 0.634 | 0.278 | 0.208 | 0.159 | 0.829 | 5.23 | 0.986 | > 5
3 | EW-11 (Ewing sarcoma, adherent) | 0.848 | > 16 | 0.767 | 4.93 | 0.981 | > 16 | 0.957 | > 8 | 0.69 | 0.501 | 0.691 | 4.06 | 0.775 | 5.16 | 0.894 | > 5
4 | EW-16 (Ewing sarcoma, adherent) | 0.898 | > 16 | 0.803 | 5.37 | 0.742 | 5.1 | 0.881 | > 8 | 0.713 | 0.516 | 0.266 | 0.208 | 0.691 | 2.2 | 0.953 | > 5
5 | EW-18 (Ewing sarcoma, suspension) | 0.834 | 11.4 | 0.692 | 2.3 | 0.886 | > 16 | 0.968 | > 8 | 0.786 | 0.928 | 0.805 | 8.74 | 0.695 | 2.3 | 0.968 | > 5
6 | FTC-133 (thyroid, adherent) | 0.982 | > 16 | 0.986 | > 10.2 | 0.983 | > 16 | 0.921 | > 8 | 0.628 | 0.292 | 0.714 | 4.3 | 0.732 | 3.09 | 0.952 | > 5
7 | FU97 (stomach, adherent) | 0.883 | > 16 | 0.96 | > 10.2 | 0.88 | > 16 | 0.959 | > 8 | 0.735 | 0.597 | 0.962 | > 16 | 0.723 | 2.74 | 0.968 | > 5
8 | FU-OV-1 (ovary, adherent) | 0.91 | > 16 | 0.824 | 8.81 | 0.928 | > 16 | 0.966 | > 8 | 0.822 | 1.68 | 0.812 | 12.1 | 0.899 | > 10 | 0.962 | > 5
9 | G-292 Clone A141B1 (osteosarcoma, adherent) | 0.941 | > 16 | 0.918 | > 10.2 | 0.965 | > 16 | 0.976 | > 8 | 0.855 | > 2 | 0.941 | > 16 | 0.8 | 8.86 | 0.972 | > 5
10 | G-401 (kidney, adherent) | 0.691 | 3.65 | 0.807 | 5.88 | 0.852 | 14.2 | 0.94 | > 8 | 0.888 | > 2 | 0.557 | 1.45 | 0.707 | 2.55 | 0.981 | > 5
11 | G-402 (soft tissue, adherent) | 0.685 | 3.94 | 0.941 | > 10.2 | 0.739 | 6.17 | 0.879 | > 8 | 0.428 | 0.0743 | 0.496 | 0.972 | 0.712 | 3.07 | 0.907 | > 5
12 | GAK (melanoma, adherent) | 0.983 | > 16 | 0.972 | > 10.2 | 0.924 | > 16 | 0.906 | > 8 | 0.819 | 1.06 | 0.837 |  | 0.814 | 5.1 | 0.944 | > 5
13 | GB-1 (glioma, adherent) | 0.911 | > 16 | 0.806 | 6.36 | 0.706 | 4.26 | 0.903 | > 8 | 0.799 | 1.17 | 0.559 | 1.49 | 0.852 | > 10 | 0.893 | > 5
14 | GI-1 (glioma, adherent) | 0.881 | 15.5 | 0.889 | > 10.2 | 0.907 | > 16 | 0.901 | > 8 | 0.604 | 0.238 | 0.463 | 0.794 | 0.54 | 0.797 | 0.978 | > 5
15 | GI-ME-N (neuroblastoma, adherent) | 0.847 | > 16 | 0.703 | 2.96 | 0.959 | > 16 | 0.759 | 3.78 | 0.707 | 0.601 | 0.715 | 5.12 | 0.624 | 1.56 | 0.895 | > 5
16 | GOTO (neuroblastoma, adherent) | 0.925 | > 16 | 0.884 | > 10.2 | 0.957 | > 16 | 0.983 | > 8 | 0.354 | 0.0466 | 0.809 | 9.76 | 0.563 | 0.951 | 0.981 | > 5
17 | GR-ST (lymphoblastic leukaemia, suspension) | 0.82 | 11.8 | 0.533 | 0.801 | 0.816 | 11.3 | 0.974 | > 8 | 0.574 | 0.208 | 0.779 | 7.97 | 0.762 | 4.29 | 0.958 | > 5

Row | Cell Line | AUC [1] | IC50 [1] [µM] | AUC [2] | IC50 [2] [µM] | AUC [3] | IC50 [3] [µM] | AUC [4] | IC50 [4] [µM] | AUC [5] | IC50 [5] [µM] | AUC [6] | IC50 [6] [µM] | AUC [7] | IC50 [7] [µM] | AUC [8] | IC50 [8] [µM]
18 | GT3TKB (stomach, adherent) | 0.972 | > 16 | 0.933 | > 10.2 | 0.892 | 14.9 | 0.891 | 7.42 | 0.929 | > 2 | 0.342 | 0.387 | 0.571 | 0.953 | 0.715 | 1.16
19 | H9 (lymphoid neoplasm, suspension) | 0.831 | 7.74 | 0.784 | 3.54 | 0.713 | 3.5 | 0.991 | > 8 | 0.573 | 0.191 | 0.554 | 1.36 | 0.843 | 5.32 | 0.99 | > 5
20 | H513 (mesothelioma, semi-adherent) | 0.945 | > 16 | 0.984 | > 10.2 | 0.985 | > 16 | 0.986 | > 8 | 0.866 | > 2 | 0.93 | > 16 | 0.866 | > 10 | 0.972 | > 5
21 | H2369 (mesothelioma, adherent) | 0.975 | > 16 | 0.985 | > 10.2 | 0.71 | 4 | 0.917 | > 8 | 0.649 | 0.328 | 0.665 | 2.93 | 0.703 | 2.39 | 0.927 | > 5
22 | H2461 (mesothelioma, adherent) | 0.983 | > 16 | 0.978 | > 10.2 | 0.949 | > 16 | 0.944 | > 8 | 0.665 | 0.405 | 0.92 | > 16 | 0.755 | 4.17 | 0.977 | > 5
23 | H2595 (mesothelioma, adherent) | 0.919 | > 16 | 0.947 | > 10.2 | 0.93 | > 16 | 0.966 | > 8 | 0.904 | > 2 | 0.558 | 1.54 | 0.714 | 3.25 | 0.962 | > 5
24 | H2722 (mesothelioma, adherent) | 0.921 | > 16 | 0.953 | > 10.2 | 0.923 | > 16 | 0.912 | > 8 | 0.776 | 0.957 | 0.796 | 9.13 | 0.808 | 6.39 | 0.982 | > 5
25 | H2731 (mesothelioma, adherent) | 0.87 | > 16 | 0.606 | 1.31 | 0.977 | > 16 | 0.97 | > 8 | 0.541 | 0.165 | 0.957 | > 16 | 0.631 | 1.52 | 0.971 | > 5
26 | H2869 (mesothelioma, adherent) | 0.864 | > 16 | 0.882 | > 10.2 | 0.918 | > 16 | 0.973 | > 8 | 0.783 | 1.07 | 0.851 | > 16 | 0.862 | > 10 | 0.953 | > 5
27 | H3118 (head and neck, adherent) | 0.794 | 8.12 | 0.8 | 5.47 | 0.805 | 8.98 | 0.845 | 6.6 | 0.494 | 0.12 | 0.396 | 0.503 | 0.708 | 2.56 | 0.926 | > 5
28 | H3255 (lung adenocarcinoma, adherent) | 0.938 | > 16 | 0.914 | > 10.2 | 0.92 | > 16 | 0.968 | > 8 | 0.855 | > 2 | 0.701 | 4.13 | 0.829 | 7.94 | 0.921 | > 5
29 | HA7-RCC (kidney, adherent) | 0.894 | > 16 | 0.93 | > 10.2 | 0.932 | > 16 | 0.965 | > 8 | 0.72 | 0.565 | 0.811 | 9.61 | 0.829 | 7.13 | 0.94 | > 5
30 | HAL-01 (lymphoblastic leukaemia, suspension) | 0.704 | 3.47 | 0.897 | 10.2 | 0.874 | 12.6 | 0.981 | > 8 | 0.48 | 0.111 | 0.681 | 2.99 | 0.658 | 1.62 | 0.978 | > 5
31 | HARA (lung squamous cell carcinoma, adherent) | 0.629 | 2.42 | 0.91 | > 10.2 | 0.851 | 15.6 | 0.983 | > 8 | 0.456 | 0.093 | 0.766 | 6.86 | 0.688 | 2.31 | 0.956 | > 5
32 | HC-1 (hairy cell leukaemia, suspension) | 0.877 | 15 | 0.464 | 0.513 | 0.911 | > 16 | 0.962 | > 8 | 0.836 | 1.25 | 0.358 | 0.413 | 0.7 | 2.22 | 0.974 | > 5
33 | HCC38 (breast, adherent) | 0.926 | > 16 | 0.733 | 3.14 | 0.949 | > 16 | 0.98 | > 8 | 0.767 | 0.802 | 0.641 | 2.54 | 0.663 | 1.85 | 0.953 | > 5

A lower IC50 marks a more sensitive line; where the fit passes the top or lowest dose, that dose stands as a limit. AUC sums up the same curve from the lowest dose to the 256-fold higher top dose; values near 1 show little effect. For some assays here: The top dose, if marked as inferred, comes from the curve model; the source does not state it.
